The results in this text go back to paper PMC4336329 (PLoS ONE, 2015).

Out of some 310,000 compounds screened, about 14,000 (4.5%) showed an effect of 50% or more. Effects have a minus sign here. This is one part of the list.
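Also: peak tail current of the secondary pulse compared with the same well before compound.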

The target of this test is human ether-à-go-go-related gene (hERG) potassium channel (human, UniProt Q12809). Nature of the test: primary screen, population patch clamp on CHO cells stably expressing hERG.
Chain of human ether-à-go-go-related gene (hERG) potassium channel (Q12809 whole entry, looked up): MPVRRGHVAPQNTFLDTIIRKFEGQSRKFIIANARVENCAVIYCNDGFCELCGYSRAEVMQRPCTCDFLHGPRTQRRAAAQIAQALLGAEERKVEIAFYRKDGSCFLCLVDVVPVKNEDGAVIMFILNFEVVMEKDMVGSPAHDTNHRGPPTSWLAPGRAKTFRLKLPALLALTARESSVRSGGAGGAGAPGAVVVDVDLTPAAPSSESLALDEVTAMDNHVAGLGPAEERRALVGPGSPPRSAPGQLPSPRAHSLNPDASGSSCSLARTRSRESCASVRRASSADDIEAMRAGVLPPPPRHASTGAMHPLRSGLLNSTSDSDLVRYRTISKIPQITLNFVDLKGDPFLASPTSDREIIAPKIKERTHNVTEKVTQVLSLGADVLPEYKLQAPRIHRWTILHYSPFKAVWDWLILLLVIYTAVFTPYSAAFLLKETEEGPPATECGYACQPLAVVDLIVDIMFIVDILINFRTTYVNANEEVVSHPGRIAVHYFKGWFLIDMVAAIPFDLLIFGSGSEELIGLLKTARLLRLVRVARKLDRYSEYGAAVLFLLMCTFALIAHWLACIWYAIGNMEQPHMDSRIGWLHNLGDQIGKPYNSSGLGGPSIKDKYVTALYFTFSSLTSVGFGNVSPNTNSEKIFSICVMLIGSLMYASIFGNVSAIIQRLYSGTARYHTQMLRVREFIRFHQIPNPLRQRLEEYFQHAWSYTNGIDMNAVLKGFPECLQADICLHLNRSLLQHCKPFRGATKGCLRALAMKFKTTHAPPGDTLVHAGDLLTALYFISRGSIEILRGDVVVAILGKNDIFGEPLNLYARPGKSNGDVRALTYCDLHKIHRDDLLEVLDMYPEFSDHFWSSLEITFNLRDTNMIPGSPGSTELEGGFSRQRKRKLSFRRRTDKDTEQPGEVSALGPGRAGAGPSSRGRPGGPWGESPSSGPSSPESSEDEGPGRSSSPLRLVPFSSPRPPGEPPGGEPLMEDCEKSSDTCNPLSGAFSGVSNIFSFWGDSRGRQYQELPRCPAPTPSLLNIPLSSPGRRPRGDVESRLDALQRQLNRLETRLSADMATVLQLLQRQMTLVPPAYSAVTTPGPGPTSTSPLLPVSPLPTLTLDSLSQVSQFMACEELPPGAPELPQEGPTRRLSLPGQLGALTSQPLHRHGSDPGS
Consider `O=C(NCCc1ccc(O)c(O)c1)C1COc2ccccc2O1` (stereo not shown), for which the “hERG current change (%, negative = inhibition) at 10uM” value was 31.1%.
Next, `O=C(CCCN1C(=O)C(c2ccccc2)Oc2cccnc21)NCc1ccc(F)cc1` (stereo not shown): 1.77%; `COc1ccc(NC(=S)N(CCCOC(C)C)C2CCN(C(C)=O)CC2)cc1Cl`: -11.5%.
In the case of `CC(C)Cc1nnc(NC(=O)CCC(=O)N2CCN(C3CCCC3)CC2)s1`, the “hERG current change (%, negative = inhibition) at 10uM” value is given as 8.3%.
`CC(C)CCNC(=O)CN(C(=O)Cn1nnc(-c2ccccc2F)n1)c1cccc2c1CCCC2`: the “hERG current change (%, negative = inhibition) at 10uM” value was -6.84%.
`COc1ccc(NC(=O)c2ccc3c(c2)C(=O)N(CC2CCCO2)C3=O)cc1` (stereo not shown): the “hERG current change (%, negative = inhibition) at 10uM” value is listed as 2.08%.
With `Cc1cccc(-c2c3c(=O)n(C)c(=O)n(C)c3c3cccnn23)c1`, the “hERG current change (%, negative = inhibition) at 10uM” value is -4.1%.
Next, `CCOc1ccc(OCC(=O)OCn2c(SC)nnc(C)c2=O)cc1`: 5.27%.
As for `CCN=C1SC(C(=O)Nc2cccc(OCC)c2)CC(=O)N1CC` (stereo not shown), the “hERG current change (%, negative = inhibition) at 10uM” value is recorded as -10.6%.
Take `Cc1ccc(C)c(C(=O)CCC(=O)NNC(=O)Cn2nc(C)cc2C)c1`: the “hERG current change (%, negative = inhibition) at 10uM” value is reported as 2.92%.
Consider `CCc1nnc(NC(=O)CSc2nnc(Cc3ccccc3)n2-c2ccc(OC)cc2)s1`, for which the “hERG current change (%, negative = inhibition) at 10uM” value stood at 4.11%.
As for `CC(NC(=O)C(=O)NN=C1CCCCCC1)c1ccccc1` (stereo not shown), the “hERG current change (%, negative = inhibition) at 10uM” value was -2.19%.
As for `Cc1ccc(C2=NC3(CCCCCC3)NC2=S)cc1`, the “hERG current change (%, negative = inhibition) at 10uM” value is -7.38%.
Turning to `COc1ccc(-c2ccc(OC)c([C@H]3[C@@H]4C=CCC[C@@]4(C)C(=O)N3Cc3ccccc3)c2)cc1OC`, the “hERG current change (%, negative = inhibition) at 10uM” value turned out to be 19.6%.
For the molecule `CCN(CC(=O)Nc1ccc(NC(C)=O)cc1)C(=O)CCCc1c[nH]c2ccccc12`, the “hERG current change (%, negative = inhibition) at 10uM” value worked out at 8.72%.
Consider `CN(C)/C=C1\Oc2ccc3ccccc3c2C1=O`, for which the “hERG current change (%, negative = inhibition) at 10uM” value amounted to 22%.
Turning to `CCOC(=O)C1CCN(c2c(NCc3ccc(C(=O)N(C)Cc4ccccc4)cc3)c(=O)c2=O)CC1`, the “hERG current change (%, negative = inhibition) at 10uM” value is given as -65.2%.
`NS(=O)(=O)c1ccc(NC(=O)N2c3ccccc3Sc3ccccc32)cc1`: the “hERG current change (%, negative = inhibition) at 10uM” value is recorded as 7.81%.
Consider `COC(=O)C(C)n1cnc2c(cnn2-c2ccc(Cl)cc2)c1=O` (stereo not shown), for which the “hERG current change (%, negative = inhibition) at 10uM” value is reported as -27.2%.
For `Fc1ccc(F)c(C2=NNC(=Nc3ccccc3F)SC2)c1`, the “hERG current change (%, negative = inhibition) at 10uM” value was 24.8%.
On to `COc1ccc2oc(C(F)(F)C(F)(F)F)cc(=O)c2c1`, for which the “hERG current change (%, negative = inhibition) at 10uM” value worked out at 3.76%.
On to `O=C(NCCN1CCCC1=O)C1CCC(=O)N(CCc2cccc(F)c2)C1` (stereo not shown), for which the “hERG current change (%, negative = inhibition) at 10uM” value came to 9.49%.
As for `O=C1CC(c2ccccc2)CC(O)=C1C=Nc1ccccc1O` (stereo not shown), the “hERG current change (%, negative = inhibition) at 10uM” value was 11.4%.
Next, `O=C(NCC(c1cccnc1)N1CCN(c2ccccc2)CC1)C1CCCCC1` (stereo not shown): -15.6%.
With `COc1ccc(CNC(=O)C2C3C=CC4(CN(Cc5cccnc5)C(=O)C24)O3)cc1` (stereo not shown), the “hERG current change (%, negative = inhibition) at 10uM” value was -16.2%.
Regarding `Cc1cnc(NC(=O)Nc2ccccc2)c(C)n1`, the “hERG current change (%, negative = inhibition) at 10uM” value turned out to be 11.1%.
With `COc1ccc(NC(=S)NCCCN2CCCC2=O)c(OC)c1`, the “hERG current change (%, negative = inhibition) at 10uM” value was 7.37%.
For `CCOC(=O)c1c(S(=O)(=O)N2CCN(c3ccc(C(C)=O)cc3)CC2)c(C)n(C)c1C`, the “hERG current change (%, negative = inhibition) at 10uM” value is recorded as 5.77%.
`O=C(c1ccc(-n2cncn2)c([N+](=O)[O-])c1)N1CCN(S(=O)(=O)c2ccccc2F)CC1`: the “hERG current change (%, negative = inhibition) at 10uM” value was -45.1%.
To `CCS(=O)(=O)c1nc(S(=O)(=O)c2ccc(C)cc2)c(NCCCn2ccnc2)s1` belongs -26.5%.
On to `Cc1c(C(=O)O)oc2c1C(O)CC(C)(C)C2` (stereo not shown), for which the “hERG current change (%, negative = inhibition) at 10uM” value amounted to 1.64%.
With `O=C(O)COc1ccccc1/C=N/NC(=O)c1cccc(S(=O)(=O)N2CCOCC2)c1`, the “hERG current change (%, negative = inhibition) at 10uM” value is on record as 7.54%.
As to `COC(=O)C(C)Sc1nc(N)c(NC(=O)c2ccco2)c(=O)[nH]1` (stereo not shown), the “hERG current change (%, negative = inhibition) at 10uM” value came to 4.02%.
For `O=C(NCc1cccnc1)/C(=N\O)c1ccccc1`, the “hERG current change (%, negative = inhibition) at 10uM” value was found to be 5.59%.
In the case of `COc1ccc(-c2nc(CS(=O)CC(=O)NCCC3=CCCCC3)c(C)o2)cc1` (stereo not shown), the “hERG current change (%, negative = inhibition) at 10uM” value is -24.2%.
In the case of `CC(=O)NC1C(Oc2ccccc2C)OC(CO)C(O)C1O` (stereo not shown), the “hERG current change (%, negative = inhibition) at 10uM” value is reported as 14.4%.
Next, `CCOC(=O)c1sc(C)c2c1NC1(CCCCC1)NC2=O`: -19.8%; `Cc1ccnc2nc(C(=O)OCC(=O)Nc3ccc4c(c3)OC(F)(F)O4)nn12`: -49.1%; `S=c1[nH]nc(-c2cc(-c3ccco3)[nH]n2)n1-c1cccc2ccccc12`: 15%.
As to `C/C(=N\NC(=S)NCc1ccccc1)c1ccc(Br)cc1`, the “hERG current change (%, negative = inhibition) at 10uM” value is listed as 22.8%.
As for `COc1ccccc1CN1C(=O)c2cccc3cccc(c23)C1=O`, the “hERG current change (%, negative = inhibition) at 10uM” value was 4.29%.
Next, `Cc1cc(C)cc(Nc2nc3ccccc3c(=O)[nH]2)c1`: 19.3%.
As for `CCOc1ccc(C(NC(=O)/C=C/c2ccco2)c2ccc(OC)c(OC)c2)cc1` (stereo not shown), the “hERG current change (%, negative = inhibition) at 10uM” value is given as -2.06%.
Turning to `CCC(C)N1CC(=O)N2C(c3ccc(OC)cc3OC)c3[nH]c4ccccc4c3C[C@H]2C1=O` (stereo partly shown), the “hERG current change (%, negative = inhibition) at 10uM” value was -49.8%.
As to `COc1ccc(C2CC(c3cccs3)=NN2C(=O)c2ccccc2)cc1OC` (stereo not shown), the “hERG current change (%, negative = inhibition) at 10uM” value was -25.9%.
Take `Cc1onc(-c2ccccc2Cl)c1C(=O)NCc1ccccn1`: the “hERG current change (%, negative = inhibition) at 10uM” value amounted to 5.34%.
As to `CCC(C)N1C(=O)/C(=C/c2ccc3c(c2)CCN3CCCCl)C(=O)NC1=S` (stereo not shown), the “hERG current change (%, negative = inhibition) at 10uM” value was 18.8%.
Next, `CCn1[nH]c(=O)c(=Nc2c(C)n(C)n(-c3ccccc3)c2=O)cc1-c1ccc(Cl)cc1`: -35.3%; `Cc1cccc(N(C(=O)CCC(=O)Nc2cc(C)on2)C(C(=O)NC2CCCC2)c2cccnc2)c1` (stereo not shown): 18.2%; `CCC(c1nnnn1CCC(C)C)N1CCC(C(N)=O)CC1` (stereo not shown): 0.376%.
In the case of `CCn1cc(C(=O)N2CCC3(CC2)OCCO3)c(=O)c2cc(S(=O)(=O)N3CCCC3)ccc21`, the “hERG current change (%, negative = inhibition) at 10uM” value stood at 16.8%.
As to `Cc1cc(C)n(Cc2ccc(C(=O)O)cc2)n1`, the “hERG current change (%, negative = inhibition) at 10uM” value stood at 14.3%.
As for `COc1ccc(C(=O)NNC(=O)C(=O)Nc2ccc(C)c(Cl)c2)cc1`, the “hERG current change (%, negative = inhibition) at 10uM” value turned out to be 15.5%.
With `CC1CCN(C(=O)CCc2nnc(-c3ccccc3)o2)CC1`, the “hERG current change (%, negative = inhibition) at 10uM” value is -5.83%.
To `Cc1ccc(N2C(N)=C(C#N)C(c3ccsc3)C3=C2CC(C)(C)CC3=O)cc1` (stereo not shown) belongs -3.24%.
